Test results: the supplement of paper PMC8813932
Counter-ions that a name gives are not always drawn. ± gives the standard deviation of the averaged measurements. The list shows a part of the results. Single values are uncertain, as repeats are few or missing.

What was measured:
Experiment in all cases: log2 surviving fraction relative to plate median (drug vs vehicle, or drug+dl922-947 vs dl922-947 alone); ovarian cancer lines: OVCAR4 is platinum-sensitive while Ov4Cis resists cisplatin and Ov4Carbo carboplatin; higher = more cell survival
Conditions in all cases: compound concentration: 10 uM, 192 h
OVCAR4 = system: OVCAR4
Ov4Carbo = system: Ov4Carbo
Ov4Cis = system: Ov4Cis
[1] = dl922-947 oncolytic adenovirus co-treatment: MOI 10
[2] = dl922-947 oncolytic adenovirus co-treatment: none

Row | SMILES | log2 surviving fraction (OVCAR4; [1]) | log2 surviving fraction (OVCAR4; [2]) | log2 surviving fraction (Ov4Carbo; [1]) | log2 surviving fraction (Ov4Carbo; [2]) | log2 surviving fraction (Ov4Cis; [1]) | log2 surviving fraction (Ov4Cis; [2])
1 | C[C@@H]1C[C@H]2[C@@H]3CCC4=CC(=O)C=C[C@]4(C)[C@@]3(Cl)[C@@H](O)C[C@]2(C)[C@@]1(OC(=O)c1ccco1)C(=O)CCl [Mometasone furoate] | 0.81 ± 0.67 | -1.12 ± 0.73 | -0.188 | -1.53 | 1.55 | -1.43
2 | N[C@@H](C(=O)N[C@@H]1C(=O)N2C(C(=O)O)=C(Cl)CS[C@H]12)c1ccccc1 [Cefaclor (Ceclor)] | 1.09 ± 0.66 | 0.144 ± 0.1 | 1.09 | 0.249 | 0.388 | 0.626
3 | Cc1cccc(Nc2ccncc2S(=O)(=O)NC(=O)NC(C)C)c1 [Torsemide (Demadex)] | 0.0169 ± 0.17 | 0.418 ± 0.1 | -0.437 | -0.984 | 0.996 | 0.578
4 | CCCN1C[C@H](CSC)C[C@@H]2c3cccc4[nH]cc(c34)C[C@H]21 [Pergolide mesylate] | -0.464 ± 0.16 | -0.397 ± 0.3 | -0.275 | 0.62 | 0.174 | -1.26
5 | NCCc1c[nH]cn1 [Histamine Phosphate] | 0.753 ± 0.11 | -0.0927 ± 1.2 | 0.283 | 0.823 | -0.369 | -0.179
6 | COC(=O)Nc1nc2cc(C(=O)c3ccc(F)cc3)ccc2[nH]1 [Flubendazole (Flutelmium)] | -2.46 ± 1.4 | -3.17 ± 0.88 | -1.89 | 0.227 | -2.88 | -4.25
7 | OCCOCCN1CCN(C(c2ccccc2)c2ccc(Cl)cc2)CC1 (configuration not stated) [Hydroxyzine 2HCl] | -0.187 ± 0.95 | 0.559 ± 2 | -1.65 | 1.57 | -0.427 | 0.145
8 | Nc1ccc(S(N)(=O)=O)cc1 [Sulfanilamide] | 2.03 ± 1.9 | 0.073 ± 0.018 | 1.86 | 0.641 | 0.276 | 0.64
9 | C=C(c1ccc(C(=O)O)cc1)c1cc2c(cc1C)C(C)(C)CCC2(C)C [Bexarotene] | 0.241 ± 0.48 | -0.418 ± 0.11 | 1.31 | -1.7 | 0.154 | -0.189
10 | CN1C2CCC1CC(OC(=O)C(O)c1ccccc1)C2 (configuration not stated) [Homatropine Bromide] | 0.608 ± 0.19 | 1.2 ± 1.3 | -0.551 | 2 | -0.0158 | 0.625
11 | CC(C)(O/N=C(\C(=O)N[C@@H]1C(=O)N2C(C(=O)[O-])=C(C[n+]3ccccc3)CS[C@H]12)c1csc(N)n1)C(=O)O [Ceftazidime Pentahydrate] | 0.108 ± 0.33 | 0.133 ± 0.22 | 0.814 | 0.112 | 0.386 | 0.376
12 | CC1(C)O[C@@H]2C[C@H]3[C@@H]4CCC5=CC(=O)C=C[C@]5(C)[C@@]4(F)[C@@H](O)C[C@]3(C)[C@]2(C(=O)CO)O1 [Triamcinolone Acetonide] | 0.879 ± 0.33 | 0.452 ± 0.61 | 2.68 | 0.342 | 1.95 | -0.897
13 | Nc1cccc2c1C(=O)N(C1CCC(=O)NC1=O)C2=O (configuration not stated) [Pomalidomide] | 0.385 ± 0.091 | 0.495 ± 0.2 | -0.041 | 0.0116 | 0.917 | 0.832
14 | COc1ccc(-c2ccc3cc(C(=O)O)ccc3c2)cc1C12CC3CC(CC(C3)C1)C2 [Adapalene] | 0.823 ± 0.84 | 0.699 ± 0.87 | -2.58 | -1.6 | 0.635 | 1.17
15 | C=C[C@]1(C)C[C@@H](OC(=O)CSC(C)(C)CNC(=O)[C@H](N)C(C)C)[C@]2(C)[C@H](C)CC[C@]3(CCC(=O)[C@H]32)[C@@H](C)[C@@H]1O [Valnemulin HCl] | -1.75 ± 0.47 | -2.78 ± 0.57 | -2.03 | -2.06 | -2.03 | -2.29
16 | C#C[C@]1(O)CC[C@H]2[C@@H]3CCC4=CC(=O)CC[C@@H]4[C@H]3CC[C@@]21CC [Levonorgestrel (Levonelle)] | 0.0575 ± 0.52 | -0.0993 ± 0.26 | 0.189 | 0.497 | 0.244 | 0.0581
17 | CN(C)c1ccc(O)c2c1C[C@H]1C[C@H]3[C@H](N(C)C)C(O)=C(C(N)=O)C(=O)[C@@]3(O)C(O)=C1C2=O [Minocycline HCl] | 1.36 ± 0.19 | 0.4826 ± 0.0029 | 1.13 | 0.817 | 1.09 | -1.61
18 | CCOC(=O)[C@H](CCc1ccccc1)N[C@H]1CCCN2CCC[C@@H](C(=O)O)N2C1=O [Cilazapril monohydrate (Inhibace)] | -0.12 ± 0.62 | -0.01 ± 0.56 | -0.742 | 0.319 | -0.336 | -0.267
19 | COc1cc(/C=C/C(=O)N2CCN(CC(=O)N3CCCC3)CC2)cc(OC)c1OC [Cinepazide maleate] | -0.757 ± 0.033 | 0.482 ± 0.2 | 0.00279 | 0.375 | 0.0396 | -2.4
20 | CN1[C@@H]2CC(O)C[C@H]1[C@@H]1O[C@@H]12 (some centres not stated) [Scopine] | 0.195 ± 0.74 | -0.379 ± 0.16 | 1.37 | 0.0227 | 0.283 | 0.121
21 | Cc1ccc(Nc2nccc(N(C)c3ccc4c(C)n(C)nc4c3)n2)cc1S(N)(=O)=O [Pazopanib] | 0.798 ± 0.011 | 0.38 ± 0.61 | 1.9 | 0.00142 | 0.113 | 0.0949
22 | CCCC1O[C@@H]2C[C@H]3[C@@H]4CCC5=CC(=O)C=C[C@]5(C)[C@H]4[C@@H](O)C[C@]3(C)[C@]2(C(=O)CO)O1 (some centres not stated) [Budesonide] | 2.02 ± 0.21 | 0.102 ± 0.93 | 2.79 | 1.74 | 1.22 | -0.961
